Read-outs that look alike come from different tables or passages of the source.

Results on three compounds are retold here after patent US5256700A (priority 1990, dated 1993).

For assay [1], the system named is Salmonella typhimurium TA 102. Put plainly: microbe, parasite or virus in culture. Conditions: Salmonella enterica.
The subject of assay [2] is Staphylococcus aureus. The following applies: cited from earlier work.
Assay [3] has as its system Salmonella typhimurium TA 102.

In assay [1], `O=C1O[C@H]([C@@H](O)CO)C(O)=C1O` [Ascorbic acid, ascorbic acid] yielded an IC50 of 2700 µM.
In the case of `CC(C)c1cc2c(c(O)c1O)[C@@]1(C(=O)O)CCCC(C)(C)[C@@H]1CC2` [Carnosic acid], the “antibiotic activity against Staphylococcus aureus” value in assay [2] is “antibiotic against Staphylococcus aureus”. In addition, in assay [3], the “IC50” value was 0.3 mg, the “anticarcinogenic activity higher by a factor than that of ascorbic acid” value is “approximately 15” and the “anticarcinogenic activity higher by a factor than that of carnosol” value is 50. In addition, the IC50 in assay [1] amounted to 150 µM.
Consider `CC(C)c1cc2c(c(O)c1O)[C@@]13CCCC(C)(C)[C@@H]1C[C@@H]2OC3=O` [Carnosol, carnosol, reference compound], for which, in assay [3], the “IC50” value worked out at 17.8 mg and the “anticarcinogenic activity compared with that of ascorbic acid” value was “slightly weaker, but of an order comparable with that of ascorbic acid”. The compound also had an IC50 in assay [1] of 9300 µM.
